From the supplement of paper PMC3334620
The full ranking holds about 33,000 sequences; the median of “E-score (-0.5 to 0.5)” is about -0.043, and the highest 2% start at about 0.37. The list shows a part of the results.

The sequences below were run against T1, Upc2 (UniProt Q12151) (assay: PBM E-score (8-mer binding enrichment) (E-score (-0.5 to 0.5)); higher = stronger / more preferred TF binding; most listed sequences are background and not binding sites). Conditions: protein concentration: 200 nM; construct: GST-full length.
T1 sequence: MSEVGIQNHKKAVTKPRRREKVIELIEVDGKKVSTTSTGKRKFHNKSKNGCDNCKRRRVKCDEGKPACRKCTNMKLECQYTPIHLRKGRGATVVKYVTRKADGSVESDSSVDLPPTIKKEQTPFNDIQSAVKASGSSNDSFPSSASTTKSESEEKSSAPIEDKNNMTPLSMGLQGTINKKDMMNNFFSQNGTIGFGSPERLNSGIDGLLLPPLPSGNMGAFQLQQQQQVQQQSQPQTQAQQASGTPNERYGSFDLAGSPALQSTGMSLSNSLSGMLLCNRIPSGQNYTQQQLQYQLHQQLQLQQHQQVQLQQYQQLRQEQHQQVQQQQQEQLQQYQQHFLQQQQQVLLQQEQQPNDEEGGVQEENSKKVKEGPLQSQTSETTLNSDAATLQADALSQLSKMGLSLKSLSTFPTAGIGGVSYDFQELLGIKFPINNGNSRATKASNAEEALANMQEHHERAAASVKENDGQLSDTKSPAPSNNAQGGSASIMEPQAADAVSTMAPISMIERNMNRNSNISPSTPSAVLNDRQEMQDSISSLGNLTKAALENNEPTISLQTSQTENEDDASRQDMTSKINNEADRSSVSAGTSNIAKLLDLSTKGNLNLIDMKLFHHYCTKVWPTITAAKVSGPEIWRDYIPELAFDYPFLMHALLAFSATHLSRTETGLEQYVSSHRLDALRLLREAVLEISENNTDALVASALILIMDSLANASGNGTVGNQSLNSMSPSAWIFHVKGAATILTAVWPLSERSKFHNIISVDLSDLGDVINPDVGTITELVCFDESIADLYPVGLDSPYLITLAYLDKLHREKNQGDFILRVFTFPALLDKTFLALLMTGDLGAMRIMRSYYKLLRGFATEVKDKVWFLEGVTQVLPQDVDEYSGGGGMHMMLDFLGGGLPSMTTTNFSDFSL
Method: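 Universal 'all 10-mer' protein binding microarrays (Agilent AMADID 015681) probed with GST-tagged S. cerevisiae TFs (full-length or DBD) made by in vitro transcription/translation (PURExpress), about 100-200 nM. Bound TF was detected with fluorescent anti-GST. Each ungapped 8-mer (which stands for itself and its reverse complement) is scored by the PBM enrichment score (E-score), a modified Wilcoxon-Mann-Whitney statistic from -0.5 to +0.5, computed with the Universal PBM Analysis Suite. Scale: above 0.35 generally sequence-specific binding.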

Row | Sequence | PBM E-score
1 | AAGCATTC | -0.143
2 | ATTCCGAG | 0.135
3 | CGGGGACC | -0.139
4 | TTAAGTAA | -0.0932
5 | CTAAGGAC | -0.15
6 | ATTTATGC | -0.0351
7 | GACAAAAC | 0.00835
8 | ACGCTTAG | 0.176
9 | AATCGTCT | 0.0582
10 | AGACTACA | 0.056
11 | CAGGTTCG | 0.112
12 | AGTGTATG | 0.0367
13 | AGGCGTCA | -0.153
14 | CTAAGGTA | -0.146
15 | ACTTGTCC | 0.102
16 | ATTAGCGA | 0.254
17 | ATTACATC | 0.12
18 | CGGAGGCC | -0.162
19 | CACTGGCA | -0.317
20 | TCATACAA | 0.0325
21 | CCAGCTCG | 0.0516
22 | ATATTCTG | 0.0135
23 | CTATTGAA | 0.0629
24 | AATACGTC | 0.0421
25 | CTTACGCA | 0.146

Row | Sequence | PBM E-score
26 | GTCTGCAA | -0.2
27 | AGGGGATC | -0.0382
28 | ATTGTCAG | -0.0912
29 | AGCGACCC | 0.0376
30 | AGATAAGG | -0.171
31 | AGGTATAT | -0.0562
32 | ACAAGCCT | -0.166
33 | TAGTGACA | -0.099
34 | GGTAGCTA | -0.154
35 | GAGAGACA | -0.323
36 | CGTAATCC | 0.12
37 | ACTGTACC | -0.077
38 | AGCCGCAG | -0.128
39 | CTCTGGTA | -0.106
40 | AGCCGTGG | -0.17
41 | ACAAGGTG | -0.221
42 | GACGAGGA | -0.00176
43 | TATCGCGA | 0.182
44 | ACCAACTG | -0.105
45 | AGATCGTC | -0.141
46 | CATAGTGG | -0.138
47 | AGAAGCAG | -0.176
48 | GGCGATAA | -0.146
49 | CACATCCC | -0.252
50 | ATGATGAA | -0.0545

Row | Sequence | PBM E-score
51 | AGGCCGAA | -0.00413
52 | GACATTAC | -0.0486
53 | AAAGAGGT | -0.182
54 | ACCACTAT | -0.0439
55 | AAGGGATT | -0.122
56 | ACTGAGGA | -0.0238
57 | ACCCAGCG | -0.127
58 | ATTTAGCC | -0.0699
59 | CCATTTAC | 0.00989
60 | TGCATGAA | 0.0372
61 | CCACTAAC | -0.034
62 | CACCGTCG | 0.0676
63 | AGCAGATA | -0.119
64 | CTTGCATA | -0.0652
65 | GACTCAAC | 0.034
66 | ATTTTGAA | 0.00837
67 | ATTTACGG | 0.297
68 | GATACAAC | 0.00052
69 | AAAGTTCA | -0.0621
70 | ACTTTACG | 0.409
71 | TGCCAAAA | -0.147
72 | CGTGGGAA | -0.166
73 | GTATTAAC | 0.194
74 | GATAGAGC | -0.0519
75 | GGGGATCA | -0.184

Row | Sequence | PBM E-score
76 | CTGTCTTC | -0.0977
77 | CAAAGCAC | -0.222
78 | ACTTCGGG | -0.185
79 | AAAGTCCC | -0.12
80 | ACCTTGCT | -0.178
81 | ATATGGAT | 0.0489
82 | TAGCGGAA | 0.155
83 | ATCCACTG | -0.155
84 | ACAGCTAG | -0.273
85 | CGGCACGC | 0.123
86 | TGCTGTAA | 0.124
87 | CATGGCAA | -0.222
88 | AACCTGAA | -0.147
89 | GCCGAACA | 0.0902
90 | TTCAACAA | 0.0162
91 | CCAACTAG | -0.161
92 | ACACAGGG | -0.17
93 | GGGCTTGA | -0.268
94 | CCAATTGC | -0.138
95 | CCCGAATA | 0.0775
96 | AAGTAGAC | 0.14
97 | AAATTATT | -0.0093
98 | ACTTATCA | -0.0343
99 | ATAAGGGG | -0.132
100 | TAGACACA | -0.245

Row | Sequence | PBM E-score
101 | AGTTGTCA | -0.152
102 | TCTATCCA | -0.247
103 | ACTTCCTG | -0.063
104 | GAATCAAA | 0.0043
105 | ATACTTAC | -0.0095
106 | CGATGCAG | -0.069
107 | TAATGCCA | 0.0601
108 | GCCTCAAC | -0.112
109 | ATGTCGCA | 0.194
110 | CAGAGGGA | -0.093
111 | CGGAACAC | 0.0172
112 | AGTCGTTG | 0.0644
113 | ATACGCGC | 0.342
114 | AAGAAGAA | 0.0557
115 | GCGATATA | 0.212
116 | CAGGGGGG | -0.182
117 | AGCTATTG | -0.0943
118 | CCTACCGC | -0.154
119 | AGGTGTTC | -0.0204
120 | ATGACTGG | -0.145
121 | CCGTCCCG | -0.0753
122 | GAGCTATC | 0.00145
123 | CCTTATGC | -0.0537
124 | GCGGCGGA | 0.0383
125 | TGCATTAA | -0.054

Row | Sequence | PBM E-score
126 | TCTTACCA | -0.0239
127 | CAAGTAGA | -0.199
128 | AGGGACGA | -0.0992
129 | CCGGCAAC | -0.0689
130 | CTAGGAAA | -0.208
131 | CGTCACCC | -0.0645
132 | CATAGCGA | -0.1
133 | GTCCCTGA | -0.187
134 | AGGTGGGG | -0.152
135 | CACAGTTC | -0.00124
136 | CACTTTCG | 0.0897
137 | AAAATGGC | -0.0658
138 | GAGATGGC | -0.179
139 | GTCCAGAA | -0.16
140 | CTCAACTA | -0.111
141 | AGGGTCAG | -0.182
142 | AGACAGAC | 0.0288
143 | ATATAGAA | 0.0234
144 | GTAGACTA | 0.0718
145 | GAACGAAC | 0.441
146 | AAAGTCCA | -0.267
147 | AGCCTGGA | -0.343
148 | AATCCCTA | 0.128
149 | AGGGCTAG | -0.183
150 | ACTATCCT | -0.149

Row | Sequence | PBM E-score
151 | ACCCCGAC | -0.0754
152 | CGGGCTAA | -0.177
153 | TAATAGAA | -0.0162
154 | AGTCGAGG | -0.177
155 | ACTTACCA | -0.0049
156 | CCTTGGGA | -0.313
157 | AACCATTC | -0.193
158 | CAATGCCA | -0.193
159 | CGTTCTTA | 0.226
160 | ACATCGCC | -0.0963
161 | CGCCATAC | 0.192
162 | AGTTTTAT | -0.0125
163 | CCGAAGTA | -0.0211
164 | TAGAAGAA | -0.0237
165 | AATCAACT | 0.0341
166 | CAAATAAC | 0.107
167 | TGACTGCA | -0.125
168 | CTGGAGAC | -0.192
169 | AAAGGACG | 0.0636
170 | AAAAATTG | -0.0658
171 | TGGCATAA | 0.0729
172 | CGACATAG | 0.00392
